Laboratory results taken from the supplement of paper PMC4967469.
IC50 is the fitted dose that halves viability relative to control wells, and lower means more sensitive; a fit beyond the top or the lowest dose is shown as a bound at that dose. AUC is the area under the same curve over the 256-fold range up to the top dose, as a fraction: 1 means no effect, lower means more sensitive. For part of these data: Where the top dose is marked as inferred, it is not printed in the source and was worked back from the curve model.

Legend:
Assay in all cases: Viability of human cancer cell lines after 72 h of drug (GDSC screen)
HG-6-64-1 = compound: CCN1CCN(Cc2ccc(NC(=O)c3ccc(C)c(/C=C/c4cnc5[nH]ccc5c4OC)c3)cc2C(F)(F)F)CC1 [HG-6-64-1]; details: top dose 5.12 µM; top dose inferred
Experimental: (§1)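 Human cancer cell lines in 384-well plates, medium with 10% serum, drug for 72 h over a 256-fold dose range (nine 2-fold or five 4-fold steps up to the top dose). Adherent lines were fixed and stained with the nucleic acid dye Syto60, suspension lines read with resazurin; signal relative to control wells, capped at 0 and 100%. One two-parameter sigmoid per drug and line, fitted in a mixed model over all curves with the slope shared within a line.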

I-BET-762 = compound: CCNC(=O)C[C@@H]1N=C(c2ccc(Cl)cc2)c2cc(OC)ccc2-n2c(C)nnc21 [I-BET-762]; details: top dose 20 µM; top dose inferred
Experimental: as §1

AV-951 = compound: COc1cc2nccc(Oc3ccc(NC(=O)Nc4cc(C)on4)c(Cl)c3)c2cc1OC [AV-951]; details: top dose 0.128 µM; top dose inferred
Experimental: as §1

MS-275 = compound: Nc1ccccc1NC(=O)c1ccc(CNC(=O)OCc2cccnc2)cc1 [MS-275]; details: top dose 5 µM; top dose inferred
Experimental: as §1

KIN001-244 = compound: O=C(NC(COc1ccc2[nH]c(=O)[nH]c2c1)c1ccccc1)c1cccn(Cc2ccc(F)c(F)c2)c1=O [KIN001-244]; details: top dose 20 µM; top dose inferred
Experimental: as §1

PF-4708671 = compound: CCc1cncnc1N1CCN(Cc2nc3ccc(C(F)(F)F)cc3[nH]2)CC1 [PF-4708671]; details: top dose 10 µM; top dose inferred
Experimental: as §1

Trametinib = compound: CC(=O)Nc1cccc(-n2c(=O)n(C3CC3)c(=O)c3c(Nc4ccc(I)cc4F)n(C)c(=O)c(C)c32)c1 [Trametinib]; details: top dose 1 µM
Experimental: as §1

Cell Line | AUC (HG-6-64-1) | IC50 (HG-6-64-1) | AUC (I-BET-762) | IC50 (I-BET-762) | AUC (AV-951) | IC50 (AV-951) | AUC (MS-275) | IC50 (MS-275) | AUC (KIN001-244) | IC50 (KIN001-244) | AUC (PF-4708671) | IC50 (PF-4708671) | AUC (Trametinib) | IC50 (Trametinib)
NCI-H2196 (small cell lung carcinoma, adherent) | 0.93 | > 5.12 µM | 0.982 | > 20 µM | 0.976 | > 128 nM | 0.851 | 4150 nM | 0.833 | 13.9 µM |  |  |  | 
NK-92MI (lymphoid neoplasm, suspension) | 0.735 | 1.42 µM |  |  |  |  | 0.71 | 1170 nM |  |  |  |  |  | 
RPMI-8226 (myeloma, suspension) | 0.99 | > 5.12 µM |  |  | 0.989 | > 128 nM | 0.815 | 2300 nM | 0.837 | 11 µM | 0.963 | > 10 µM |  | 
SCC-3 (B-cell lymphoma, suspension) | 0.997 | > 5.12 µM | 0.876 | 10.9 µM | 0.995 | > 128 nM | 0.234 | 70.2 nM | 0.935 | 17.3 µM |  |  |  | 
SIG-M5 (acute myeloid leukaemia, suspension) | 0.683 | 0.898 µM | 0.289 | 0.378 µM | 0.993 | > 128 nM | 0.609 |  | 0.147 | 0.157 µM |  |  |  | 
SU-DHL-1 (anaplastic large cell lymphoma, suspension) | 0.984 | > 5.12 µM | 0.995 | > 20 µM | 0.993 | > 128 nM | 0.62 | 608 nM | 0.919 | 14.8 µM |  |  |  | 
TALL-1 (T-cell lymphoblastic leukaemia, suspension) | 0.989 | > 5.12 µM | 0.95 | > 20 µM | 0.989 | > 128 nM | 0.915 | > 5000 nM | 0.959 | > 20 µM |  |  |  | 
TE-441-T (rhabdomyosarcoma, adherent) | 0.953 | > 5.12 µM |  |  | 0.989 | > 128 nM | 0.96 | > 5000 nM | 0.927 | > 20 µM |  |  |  | 
UACC-812 (breast, adherent) | 0.986 | > 5.12 µM | 0.931 | > 20 µM | 0.982 | > 128 nM | 0.99 | > 5000 nM | 0.93 | > 20 µM |  |  |  | 
UM-UC-3 (bladder, adherent) | 0.878 | 4.65 µM | 0.974 | > 20 µM | 0.984 | > 128 nM |  |  | 0.755 | 6.4 µM | 0.953 | > 10 µM | 0.726 | 260 nM
UMC-11 (lung carcinoid, adherent) | 0.932 | > 5.12 µM | 0.913 | > 20 µM | 0.99 | > 128 nM |  |  | 0.89 | 18.8 µM | 0.954 | > 10 µM | 0.977 | > 1000 nM
VMRC-MELG (melanoma, adherent) | 0.923 | > 5.12 µM | 0.739 | 6.24 µM | 0.985 | > 128 nM |  |  | 0.785 | 8.99 µM | 0.987 | > 10 µM | 0.948 | > 1000 nM
VMRC-RCZ (kidney, adherent) | 0.552 | 0.455 µM | 0.967 | > 20 µM | 0.984 | > 128 nM |  |  | 0.866 | > 20 µM | 0.911 | > 10 µM | 0.904 | > 1000 nM
WM35 (melanoma, adherent) | 0.632 | 0.74 µM | 0.804 | 10.1 µM | 0.977 | > 128 nM |  |  | 0.756 | 6.9 µM | 0.986 | > 10 µM | 0.068 | < 3.91 nM
WM278 (melanoma, adherent) | 0.347 | 0.114 µM | 0.903 | > 20 µM | 0.983 | > 128 nM |  |  | 0.784 | 9.61 µM | 0.98 | > 10 µM | 0.624 | 143 nM
WM793B (melanoma, adherent) | 0.509 | 0.339 µM | 0.802 | 11.1 µM | 0.971 | > 128 nM |  |  | 0.855 | 18.7 µM | 0.787 | 4.84 µM | 0.445 | 43.5 nM
WM1552C (melanoma, adherent) | 0.693 | 1.12 µM | 0.902 | > 20 µM | 0.974 | > 128 nM |  |  | 0.979 | > 20 µM | 0.988 | > 10 µM | 0.718 | 260 nM
WM-115 (melanoma, adherent) | 0.899 | > 5.12 µM | 0.891 | > 20 µM | 0.96 | > 128 nM |  |  | 0.753 | 8.04 µM | 0.93 | > 10 µM | 0.351 | 21.9 nM
YAPC (pancreas, adherent) | 0.83 | 4.36 µM | 0.956 | > 20 µM | 0.98 | > 128 nM |  |  | 0.94 | > 20 µM | 0.961 | > 10 µM | 0.55 | 88.5 nM
YKG-1 (glioma, adherent) | 0.87 | 4.91 µM | 0.975 | > 20 µM | 0.982 | > 128 nM |  |  | 0.894 | > 20 µM | 0.939 | > 10 µM | 0.67 | 187 nM
huH-1 (liver, adherent) | 0.979 | > 5.12 µM | 0.984 | > 20 µM | 0.984 | > 128 nM |  |  | 0.984 | > 20 µM | 0.922 | > 10 µM | 0.86 | > 1000 nM
no-11 (glioma, adherent) | 0.792 | 3 µM | 0.937 | > 20 µM | 0.983 | > 128 nM |  |  | 0.891 | > 20 µM | 0.964 | > 10 µM | 0.882 | > 1000 nM
